Experimental data as given in PMC4242493.
The other results are listed elsewhere or left out. The list includes weakly bound sequences.

molecular target: MaxL homodimer (UniProt P61244); test: universal protein-binding microarray (PBM); conditions: PBS-based mixture, 10 nM His-tagged protein dimer, 2% milk, 200 ng/uL BSA, 50 ng/uL salmon testes DNA, 0.02% TX-100; detection with Alexa 488 anti-His …; high values mean tight binding; most listed sequences are background and not binding sites; double strand, one strand shown
Sequence of UniProt P61244 (P61244 whole entry): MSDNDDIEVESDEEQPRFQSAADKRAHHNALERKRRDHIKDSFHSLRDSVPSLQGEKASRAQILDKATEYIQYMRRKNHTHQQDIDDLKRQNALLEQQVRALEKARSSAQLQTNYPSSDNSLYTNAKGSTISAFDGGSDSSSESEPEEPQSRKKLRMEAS

Sequence	binding signal (normalized occupancy)
TCGTAGCA	0.0796
AATTAAAT	0.0748
AAATGCGA	0.0758
CCGGGGCG	0.063
AGGCGCCG	0.07
GATAGTGC	0.0782
ACGACCAT	0.0839
CGCTCCTC	0.0703
AGTCGTTA	0.0733
CTTAGTTA	0.0752
AGAGCTAT	0.0714
AGCTAGCC	0.0677
GAAGTGGA	0.069
AAATTAGA	0.0802
AGGGCATA	0.0779
AAAACGTC	0.0704
ATATGGCG	0.0846
CGACCATA	0.0821
CAAGTCCG	0.071
TAGCCCTA	0.0704
GCCAACGA	0.0736
GAAAAAAC	0.0761

Sequence	binding signal (normalized occupancy)
GAATTAAA	0.0764
ACACATGT	0.127
AAAATTGG	0.0771
TCTGCGAA	0.067
CGAAGCCG	0.0702
GCAGAGAA	0.068
GCCGTTAA	0.0697
AATTGACT	0.0734
ACTGACCG	0.0669
ACGAATCT	0.0734
AAGAATAG	0.0759
AAACACTC	0.0801
CGGCTAGC	0.0645
AATCCGCA	0.0758
AAGATTAC	0.0705
GGCTGTTA	0.0784
TCTCGTCA	0.077
ACCATAGC	0.0741
ACCAATAA	0.0733
CCCCGCCA	0.0771
GGCGCGAA	0.0672
CAAATTTG	0.0694

Sequence	binding signal (normalized occupancy)
CCGACTGC	0.0663
CGCTGTTC	0.0749
GGGGATAA	0.0829
GGACCTGA	0.075
CGCTCAAC	0.0727
ACTCAACC	0.0725
CCGTCTCG	0.0722
ACTTAGCA	0.075
AACGCTTG	0.0697
AGGGAACA	0.0752
ATCTACGC	0.0774
CCTGCAGG	0.074
ACGCACCG	0.0757
AAGGGTAG	0.0742
CCCACGGC	0.0782
CAAGGGCC	0.064
AGGTCAGA	0.0716
GTATATAA	0.0774
CGCAACAG	0.0706
AACCAATC	0.0753
CGCTGGAC	0.0733
GGATGTTA	0.08

Sequence	binding signal (normalized occupancy)
CACGAGAC	0.1
CCAAACCG	0.0668
AGTAGTAA	0.0731
CCCGCACC	0.0791
GATTATGA	0.0801
CGACACCG	0.0721
AAACCCAG	0.0706
ATGGGGCG	0.0866
AGACTATG	0.0801
CAAGTAGC	0.073
CGTGTGAG	0.0893
CGCCAAGA	0.0708
CTTTACGC	0.0726
GACTTTGA	0.0748
AATCTCTG	0.0763
AAACTTTG	0.0703
CATCGTAC	0.0827
CGTTTTGC	0.0707
AGGGAACC	0.0702
AAAGATCA	0.0745
